The record followed here is article PMC5681660, “Reduced hepatitis B and D viral entry using clinically applied drugs as novel inhibitors of the bile acid transporter NTCP” (Scientific Reports, 2017).

The target in experiment [1] is T1, human NTCP (Homo sapiens, UniProt Q14973).
T1 sequence (Q14973 1-349): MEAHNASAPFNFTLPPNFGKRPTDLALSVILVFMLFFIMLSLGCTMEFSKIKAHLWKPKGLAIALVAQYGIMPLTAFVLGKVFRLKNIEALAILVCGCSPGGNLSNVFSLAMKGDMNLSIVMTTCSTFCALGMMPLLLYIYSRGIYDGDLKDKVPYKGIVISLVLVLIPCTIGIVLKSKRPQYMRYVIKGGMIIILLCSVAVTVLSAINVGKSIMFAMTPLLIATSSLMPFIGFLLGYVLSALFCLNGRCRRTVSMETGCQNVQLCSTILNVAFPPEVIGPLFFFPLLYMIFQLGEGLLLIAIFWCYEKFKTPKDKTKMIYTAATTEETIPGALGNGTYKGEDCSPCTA
The experiment in a line: Screening fluorescent competitive Myrcludex B-FITC binding assay (96-well, 10 µM drug).

Experiment [2] deals with T1, human NTCP. The experiment in a line: Screening taurocholate uptake assay (96-well, [14C]taurocholate, 10 µM drug). As to conditions: for remaining activity at 10 µM: 10 min, read-out: %NTCP activity.
The mark [3] stands for this setting: 0.5 h, read-out: %NTCP binding, screen, 10 µM drug, Myrcludex B-FITC binding.
Where [4] appears, read: 0.5 h, read-out: %NTCP binding, Prestwick library screen, Myrcludex B-FITC binding, 10 µM drug.
Where [5] appears, read: screen, 10 µM drug, Myrcludex B-FITC binding.

Where a name gives a salt, the structure may show the parent alone. Read-outs that look alike come from different tables or passages of the source.

As to `NC[C@H]1O[C@H](O[C@H]2[C@H](O)[C@@H](O[C@H]3O[C@H](CO)[C@@H](O)[C@H](N)[C@H]3O)[C@H](N)C[C@@H]2N)[C@H](O)[C@@H](O)[C@@H]1O` [Kanamycin A sulfate], the remaining activity at 10 µM on human NTCP [1] (0.5 h, read-out: %NTCP binding) stood at 69.3%; on human NTCP [2], 85%.

`O=C(O)C(O)C(O)C(=O)O.O=C(c1ccc(F)cc1)C1CCN(CCn2c(=O)[nH]c3ccccc3c2=O)CC1` [Ketanserin tartrate hydrate]: the “%NTCP binding” value on human NTCP [1] (Prestwick library screen, Myrcludex B-FITC binding, 10 µM drug) is on record as 71.289%. Also, the “%NTCP activity” value on human NTCP [2] (Prestwick library screen, [14C]taurocholate uptake, 10 µM drug) came to 111.152%.

Consider `CC(=O)N1CCN(c2ccc(OCC3COC(Cn4ccnc4)(c4ccc(Cl)cc4Cl)O3)cc2)CC1` (centres unmarked) [Ketoconazole], for which the results for the remaining activity at 10 µM on human NTCP [1] (setting [3]) and on human NTCP [2] were 32.8% and 66.4%, respectively.

As for `O=C(c1ccccc1)c1ccc2n1CCC2C(=O)O` (centres unmarked) [Ketorolac tromethamine], the remaining activity at 10 µM stood at 85.5% on human NTCP [1] (0.5 h, read-out: %NTCP binding) and 58% on human NTCP [2].

Take `CN1CCC(=C2c3ccccc3CC(=O)c3sccc32)CC1` [Ketotifen fumarate]: the remaining activity at 10 µM was 60.7% on human NTCP [1] (0.5 h, read-out: %NTCP binding) and 125% at human NTCP [2].

As for `COc1c2occc2c(OC)c2c(=O)cc(C)oc12` [Khellin], the remaining activity at 10 µM on human NTCP [1] (0.5 h, read-out: %NTCP binding) was 85.8%; at human NTCP [2], 51.5%.

Consider `CC(CCc1ccccc1)NCC(O)c1ccc(O)c(C(N)=O)c1` (centres unmarked) [Labetalol hydrochloride], for which the remaining activity at 10 µM at human NTCP [1] (0.5 h, read-out: %NTCP binding) stood at 82.2%; at human NTCP [2] it was 54.1%.

`CCOC(=O)C1=C(C)NC(C)=C(C(=O)OCC)C1c1ccccc1/C=C/C(=O)OC(C)(C)C` [Lacidipine]: the remaining activity at 10 µM on human NTCP [1] (0.5 h, read-out: %NTCP binding) was determined as 84.5%; at human NTCP [2], 115%.

Consider `Nc1nnc(-c2cccc(Cl)c2Cl)c(N)n1` [Lamotrigine], for which the remaining activity at 10 µM was 94.5% on human NTCP [1] (0.5 h, read-out: %NTCP binding) and 123% at human NTCP [2].

In the case of `Cc1c(OCC(F)(F)F)ccnc1C[S+]([O-])c1nc2ccccc2[nH]1` (centres unmarked) [Lansoprazole], the remaining activity at 10 µM stood at 92.5% at human NTCP [1] (0.5 h, read-out: %NTCP binding) and 63.6% on human NTCP [2].

Turning to `CC(C)OC(=O)CCC/C=C\C[C@@H]1[C@@H](CC[C@@H](O)CCc2ccccc2)[C@H](O)C[C@@H]1O` [Latanoprost], the remaining activity at 10 µM on human NTCP [1] (0.5 h, read-out: %NTCP binding) was found to be 42.5%; on human NTCP [2] it was 93.2%.

`Cc1oncc1C(=O)Nc1ccc(C(F)(F)F)cc1` [Leflunomide]: the remaining activity at 10 µM worked out at 97.9% on human NTCP [1] (0.5 h, read-out: %NTCP binding) and 92.5% at human NTCP [2].

Take `N#Cc1ccc(C(c2ccc(C#N)cc2)n2cncn2)cc1` [Letrozole]: the remaining activity at 10 µM at human NTCP [1] (0.5 h, read-out: %NTCP binding) worked out at 83.6%; on human NTCP [2] it was 115%.

For the compound `CC[C@@H](C(N)=O)N1CCCC1=O` [Levetiracetam], the remaining activity at 10 µM at human NTCP [1] (setting [4]) is 76.7%; on human NTCP [2], 118%.

In the case of `C[C@@H]1CN([C@H]2CC[C@](C#N)(c3ccc(F)cc3)CC2)CC[C@]1(C(=O)O)c1ccccc1` [Levocabastine hydrochloride], the remaining activity at 10 µM at human NTCP [1] (setting [4]) turned out to be 81.3%; on human NTCP [2], 71.1%.

Turning to `C[C@H](N)[C@H](O)c1ccc(O)c(O)c1` [Levonordefrin], the results for the remaining activity at 10 µM at human NTCP [1] (setting [3]) and on human NTCP [2] were 85.7% and 107%, respectively.

Turning to `CCC(=O)O[C@@](Cc1ccccc1)(c1ccccc1)[C@@H](C)CN(C)C` [Levopropoxyphene napsylate], the remaining activity at 10 µM on human NTCP [1] (0.5 h, read-out: %NTCP binding) is 87.9%; on human NTCP [2], 75.5%.

With `CCN(CC)CC(=O)Nc1c(C)cccc1C` [Lidocaine hydrochloride], the remaining activity at 10 µM on human NTCP [1] (0.5 h, read-out: %NTCP binding) is 115%; on human NTCP [2], 89.3%.

Take `Cc1cccc(C)c1NC(=O)CN1CCN(CCCC(c2ccc(F)cc2)c2ccc(F)cc2)CC1` [Lidoflazine]: the remaining activity at 10 µM on human NTCP [1] (0.5 h, read-out: %NTCP binding) was determined as 62.4%; at human NTCP [2], 113%.

For the compound `CCC[C@@H]1C[C@@H](C(=O)N[C@@H]([C@H]2O[C@H](SC)[C@H](O)[C@@H](O)[C@H]2O)[C@@H](C)O)N(C)C1` [Lincomycin hydrochloride], the remaining activity at 10 µM turned out to be 74.4% on human NTCP [1] (0.5 h, read-out: %NTCP binding) and 85.1% at human NTCP [2].

Take `COc1cccc(N(C)C(=S)Oc2ccc3c(c2)CCCC3)n1` [Liranaftate]: the remaining activity at 10 µM on human NTCP [1] (0.5 h, read-out: %NTCP binding, Prestwick library screen, 10 µM drug, Myrcludex B-FITC binding) is 92.7%; at human NTCP [2], 102%.

Regarding `NCCCC[C@H](N[C@@H](CCc1ccccc1)C(=O)O)C(=O)N1CCC[C@H]1C(=O)O` [Lisinopril], the remaining activity at 10 µM was determined as 66.9% on human NTCP [1] (0.5 h, read-out: %NTCP binding) and 85.1% on human NTCP [2].

In the case of `CN(CCCN1c2ccccc2CCc2ccccc21)CC(=O)c1ccc(Cl)cc1` [Lofepramine], the remaining activity at 10 µM was 44.7% at human NTCP [1] (0.5 h, read-out: %NTCP binding) and 115% at human NTCP [2].

For `CC(Oc1c(Cl)cccc1Cl)C1=NCCN1` (centres unmarked) [Lofexidine], the remaining activity at 10 µM at human NTCP [1] (0.5 h, read-out: %NTCP binding) amounted to 81.5%; at human NTCP [2], 76.5%.

With `CCn1cc(C(=O)O)c(=O)c2cc(F)c(N3CCNC(C)C3)c(F)c21` (centres unmarked) [Lomefloxacin hydrochloride], the remaining activity at 10 µM was 73.1% on human NTCP [1] (0.5 h, read-out: %NTCP binding) and 139% on human NTCP [2].

For the compound `COc1ccc(CN2CCN(C(c3ccc(F)cc3)c3ccc(F)cc3)CC2)c(OC)c1OC.Cl.Cl` [Lomerizine hydrochloride], at human NTCP [1] (setting [5]), the “%NTCP binding” value was 52.918%. For the same compound, the “%NTCP activity” value on human NTCP [2] is 101.368%.

As to `CN1CCN(C2=Nc3ccccc3Oc3ccc(Cl)cc32)CC1` [Loxapine succinate], the remaining activity at 10 µM turned out to be 93.1% on human NTCP [1] (0.5 h, read-out: %NTCP binding) and 48.7% on human NTCP [2].

Regarding `O=c1cc(-c2ccc(O)c(O)c2)oc2cc(O)cc(O)c12` [Luteolin], the remaining activity at 10 µM at human NTCP [1] (0.5 h, read-out: %NTCP binding) came to 81.4%; at human NTCP [2], 100%.

As for `CN(C)[C@@H]1C(O)=C(C(=O)NCNCCCC[C@H](N)C(=O)O)C(=O)[C@@]2(O)C(O)=C3C(=O)c4c(O)cccc4[C@@](C)(O)[C@H]3C[C@@H]12` [Lymecycline], the remaining activity at 10 µM was 83.5% on human NTCP [1] (0.5 h, read-out: %NTCP binding) and 70.8% on human NTCP [2].

As for `C#C[C@]1(O)CC[C@H]2[C@@H]3CCC4=CCCC[C@@H]4[C@H]3CC[C@@]21C` [Lynestrenol], the remaining activity at 10 µM at human NTCP [1] (0.5 h, read-out: %NTCP binding) is 88.9%; at human NTCP [2] it was 53.7%.

In the case of `NCc1ccc(S(N)(=O)=O)cc1` [Mafenide hydrochloride], the remaining activity at 10 µM on human NTCP [1] (0.5 h, read-out: %NTCP binding) turned out to be 51.2%; at human NTCP [2] it was 90.8%.

Take `COC(=O)Nc1nc2ccc(C(=O)c3ccccc3)cc2[nH]1` [Mebendazole]: the remaining activity at 10 µM at human NTCP [1] (0.5 h, read-out: %NTCP binding) was determined as 62.7%; at human NTCP [2], 105%.

With `CCN(CCCCOC(=O)c1ccc(OC)c(OC)c1)C(C)Cc1ccc(OC)cc1` (centres unmarked) [Mebeverine hydrochloride], the remaining activity at 10 µM at human NTCP [1] (0.5 h, read-out: %NTCP binding) was 57.9%; at human NTCP [2], 120%.

Turning to `CN1CCc2c(c3ccccc3n2Cc2ccccc2)C1.O=S(=O)(O)c1cccc2c(S(=O)(=O)O)cccc12` [Mebhydroline 1,5-naphtalenedisulfonate], the “%NTCP binding” value at human NTCP [1] (Prestwick library screen, 10 µM drug, Myrcludex B-FITC binding) was 98.573%. Moreover, the “%NTCP activity” value on human NTCP [2] is on record as 36.9909%.

`CNC1(C)C2CCC(C2)C1(C)C` (centres unmarked) [Mecamylamine hydrochloride]: the remaining activity at 10 µM at human NTCP [1] (0.5 h, read-out: %NTCP binding) was determined as 95.4%; at human NTCP [2], 86.9%.

As to `CN(C)CCOC(=O)COc1ccc(Cl)cc1.Cl` [Meclofenoxate hydrochloride], the “%NTCP binding” value on human NTCP [1] (setting [5]) was found to be 80.5418%. The “%NTCP activity” value at human NTCP [2] was found to be 84.543%.

For `CC(=O)[C@H]1CC[C@H]2[C@@H]3C[C@H](C)C4=CC(=O)CC[C@]4(C)[C@H]3[C@@H](O)C[C@]12C` [Medrysone], the remaining activity at 10 µM at human NTCP [1] (0.5 h, read-out: %NTCP binding) amounted to 107%; at human NTCP [2], 77.4%.
